From the RNAGym collection of RNA variant scans (doi:10.7554/elife.90254)
Read counts are not given, so values of variants with three or more changes are uncertain.

B1: LINE1-full (parent)
chain: UACGUAGGUGGUUUUCCCCUGAUAGUGCUAAGGGGGCCUGGAAGUUUGGACUGGGCAGAGCUCAACACAGCGUGGCAAAGUGGCUGUGGCUAGACUGCCUCUCUGGAUUCCUCGUCACUCAGCAGGGCAUCUCUGAGAGAAAUGCC

Variants of: B1
Assay: self-cleavage, relative activity (ratio to wild type); higher = more cleavage; in vitro, sequencing; the parent is a self-cleaving ribozyme

Variant	self-cleavage
CACGUAGGUGGCUCUCCCCUGAUAGUGCUAAGGGGGCCUGGAAGUUUGGACUGGGCAGAGCUCAACACAGCGUGGCAAAGUGGCUGUGGCUAGACUGCCUCUCUGGAUUCCUCGUCGCUCAGCAGGGCAUCUCUGAGAGAAAUGCC	1.25
CACGUAGGUGGGUUUCCCCUGAUAGUGCUAAGGGGGCCUGGAAGUUUGGACUGGGCCGAGCUCAACACAGCGUGGCAAAGUGGCUGUGGCUAGACUGCCUCACUGGAUUCCUCGUCACUCAGCAGGGCAUCUCUGAGAGAAAUGCU	0.52
CACGUAGGUGGCUUUCCCCUGAUAGUGCUAAGGGGGCCUGGAAGUUUGGACUGGGCAGAGCUCAACACAGCGUGGCAAAGUGGCUGUGGCUAGACUGCCUCCCUGGAUUCCUCGUCACUCAGCGGGGCAUCUCUGAGAGAAAUGCC	0
CACGUAGGUGGUUUUCCCCUGACAGUGCUAAGGGGGCCUGGAAGUUUGGACUGGGCAGAGCUCAACACAGCGUGGCAAAGUGGCUGUGGCUAGACUGCCUCUCUGGAUUCCUCGUCACUCAGCGGGGCAUCUCUGAGAGAAAUGCC	0.82
CACGUAGGUGGCUUUCCCCUGAUAGUGCUAAGGGGGCCUGGAAGUUUGGACUGGGCAGAGCUCAACACAGCGUGGCGAAGUGGCUGUGGCUAGACUGCCUCUCUGGAUUCCUCGUCACUCAGCAGGGCAUCUCUGAGAGAAAUGCC	0
CACGUAGGUGGUCCUCCCCUGACAGUGCUAAGGGGGCCUGGAAGUUUGGACUGGGCAGAGCUCAACACAGCGUGGCAAAGUGGCUGUGGCUAGACUGCCUCUCUGGAUUCCUCGUCACUCAGCAGGGCGUCUCUGAGGGAAAUGCC	0
CACGUAGGUGGGUUUCCCCUGAUAGUGCUAAGGGGGCCAGGAAGUUUGGACUGGGCAGAGCUCAACACAGCGUGGCAAAGUGGCUGUGGCUAGACUGCCUCUCUGGAUUCCUCGUCACUCAGCGGGGCAUCUCUGAGUGAGAUGCC	0.46
CACGUAGGCGGUUCUCCCCUGAUAGUGCUAAGGGGGCCUGGAGGUUUGGACUGGGCAGAGCUCUACACUGCGUGGCAAAGUGGCUGUGGCUAGACUGCCUCUCUGGAUUCCUCGUCACUCAGCAGGGCAUCUCUGAGAGAAAUGCC	0.36
CACGUAGGUGGUCAUCCCCUGAUAGUGCUAAGGGGGCCUGGAAGUUUGGACUGGGCAGAGCUCAACACAGCGUGGCAAAGUGGCUGUGGCUAGACUGCCUCUCUGGAUUCCUCGUCACUCAGCAGGGCAUCUCUGAGAGAAAUGCC	0
CACGUAGGUGGUUGUCCCCUGAUAGUGCUAAGGGGGCCUGGAAGUUAGGACUGGGCAGAGCUCAACACAGCGUGGCAAAGUGGCUGUGGCUAGACUGCCUCUCUGGAUUCCUCGUCACUCAGCAGGGCAUCUCUGAGAGAAAUGCC	1.21
CACGUAGGCGGUUUUCCCCUGAUAGUGCUAAGGGGGCCUGGAAGUUCGGACUGGGCAGAGCUCAACACAGCGUGGCAAAGUGGCUGUGGCUAGACUGCCUCUCUGGAUUCCUCGUCACUCAGCAGGGCAUCUCUGAGAGAAAUGCC	0.47
CACGUAGGUGGUUCUCCCCUGAUAGUGCUAAGGGGGCCUGGAAGUUUGGACUGGGCAGAGCUCAACACAGCGUGGCAAAGUGGCUGUGGCUAGACUGCCUCUCUGGAUUCCUCGUCACCCAGCAGGGCAUCUCUGGGAGUAAUGCC	1.44
CACGUAGGUGGUUUUCCCCAGAUAGUGCUAAGGGGGCCUGGAAGUUUGGACUGGGCAGAGCUCAACACAGCGUGGCAAAGUGGCUGAGGCUAGACCGCCUCUCUGGAUUCCUCGUCACUCAGCGGGGCAUCUCUGAGAGAAAUGCC	0.14
CACGUAGGUGGCUUUCCCCUGAUGGUGCUAAGGGGGCCUGGAAGUUUGGACUGGGCAGAGCUCAACACAGCGUGGCAAAGUGGCUGUGGCUAGACUGCCUCUCUGGAUUCCUCGUCACUCAGCAGGGCAUCUCUGAGAGAAAUGCC	1.48
CACGUAGGUGGUUUUCCCCUGACAGUGCUAAGGGGGCCUGGAAGUUUGGACUGGGCAGAGCUCAACAUAGCGUGGCAAAGUGGCUGUGGCUAGACUGCCUCUCUGGAUUCCUCGUCACUCAGCAGGGCAUCUCUGAGAGAAAUGCC	0.4
CACGUAGGUGGUUUACCCCUGAUAGUGCUAAGGGGGCCUGGAAGUUUGGACUGGGCAGAGCUCAACACAGCGUGGCAAAGUGGCUGUGGCUAGACUGCCUCUCUGGAUUCCUCGUCACUCAGCAGGGCUUCUCUGAGAGAAAUGCC	0.75
CACGUAGGUGGUUUCCCCCUGAUAGUGCCAAGGGGGCCUGUAAGUUUGGACUGGGCAGAGCUCAACACAGCGUGGCAAAGUGGCUGUGGCUAGUCUGCCUCUCUGGAUUCCUCGUCACUCAGCAGGGCAUCUCUGAGAGAAAUGCC	0.34
CACGUAGGUGGUUCUCCCCUGAUAGUGCUAAGGGGGCCUGGAAGUUUGGACUGGGCAGAGCUCAACACAGCGUGGCAAAGUGGCUGUGGCUAGACUGCCUCUCUGGAUUCCUCGUCACACAGCAGGGCAUCUCUGAGAGAAAUGCC	1.12
CACGUAGGUGGUUUUCCCCCGAUAGUGCUAAGGGGGCCUGGAAGUUUGGACUGGGCAGAGCUCAACACGGCGUGGCAAAGUGGCUGUGGCUAGACUGCCUCUCUGGAUUCCUCGUCACUCAGCAGGGCAUCUCUGAGAGAAAUGCC	1.41
CACGUAGGUGGUUUUCCCCCGAUAGUGCUAAGGGGGCCUGGAAGUUUGGACUGGGCAGAGCUCAACACAGAGUGGCAAAGUGGCUGUGGCUAGACUGCCUCUCUGGAUUCCUCGUCACUCAGCAGGGCAUCUCUGAGAGAAAUGCC	0.2

Variant	self-cleavage
CACGUAGGUGGUUUACCCCAGAUAGUGCUAAGGGGGCCUGGAAGUUUGGACUGGGCAGAGCUCAACACAGCGUGGCAUAGUGGCUGUGGCUAGACUGCCUCUCUGGAUUCCUCGUCACUCAGCAGGGCUUCUCUGAGAGAAAUGCC	0.85
CACGUAGGUGGUUUUCCCCUGACAGUGCUUAGGGGGCCUGGAAGUUCGGACUGGGCAGAGCUCAACACAGCGUGGCAAAGUGGCUGUGGCUAGACUGCCUCUCUGGAUUCCUCGUCACUCAGCAGGGCAUCUCUGAGAGAAAUGCC	0.42
CACGUAGGUGGUUUUCCCCUGACAGUGCUAAGGGGGCCUGGAAGUUUGGACUGGGCAGAGCUCAACACAGCGUGGCAAAGUGGCUGUGGCUGGACUGCCUCUCUGGAUUCCUCGUCACUCAGCAGGGCAUCUCUGAGAGAAAUGCC	0.19
CACGUAGGUGGUUUUCCCCCGGUAGUGCUAAGGGGGCCUGGAAGUUUGGACUGGGCAGAGCUCAACACAGCGUGGCAAAGGGGCUGUGGUUAGACUGCCUCUCUGGAUUCCUCGUCACUCAGCUGGGCAUCUCUGAGAGAAAUGCC	0.13
CACGUAGGUGGUCUUCCCCUGAUAGUGCUAAGGGGGCCUGGAAGUUUGGACUGGGCAGAGCUCAACACAGCGUGGCAAAGUGGCUGUGGCUAGACUGCCCCUCUGGAUUCCUCGUCACUCAGCAGGGCAUCUCUGAGAGGAAUGCC	2.12
CACGUAGGUGGUUUCCCCCUGAUAGUGCUAAGGGGGCCUGGAAGUUUGGACUGGGCAGAGCUCAACACAGCGUGGCAAAGUGGCUGUGGCUAGACUGCCUCUCUGGAUUCCUCCUCACUCAGCAGGGCAUCUCUGAGAAAAAUGCC	1
CACGUAGGUGGUUCUCCCCUGAUAGUGCUAAGGGGGCCUGGAAGUUAGGACUGGGCGGAGCUCAACGCAGCGUGGCAAAGUGGCUGUGGCUAGACUGCCUCUCUGGAAUCCUCGUCACUCAGCAGGGCAUCUCUGAGAGAAAUGCC	0
CACGUAGGCGGUUUUCCCCUGAUAGUGCUAAGGGGACCUGGAAGUUUGGACUGGGCAGAGCUCAACACAGCGUGGCAAAGUGGCUGUGGCUAGACUACCUCUCUGGAUUCCUCGUCACUCUGCAGGGCAUCUCUGAGAGAAAUGCC	0.14
CACGUAGGUGGUUUACCCCUGAUAGUGCUAAGGGGGCCUGGAAGUUUGGACUGGGCAGAGCUCAACACAGCGUGGCAAAGUGGCUGUGGCUAGACUGCCACUCUGGAUUCCUCGUCACUCAGCAGGGCAUCUCUGAGAGAAAUGCC	0.49
CACGUAGGUGGCUUUCCCCUGAUAGAGCUAAGGGGGCCUGGAAGUUUGGACUGGGCAGAGCUCAACACAGCGUGGCAAAGUGGCUGUGGCUAGACUGCCUCUCUGGAUUCCUCGUCACUCAGCAGGGCAUCCCUGAGAGAAAUGCC	0.4
CACGUAGGUGGUUAUCCCCUGAUAGUGCCAAGGGGGCUUGGAAGUUUGGACUGGGCAGAGCUCAACACAGCGUGGCAAAGUGGCUGUGGCUAGACUGCCUCUCUGGAUUCCUCGUCACUCAGCAGGGCAUCUCUGAGAGAGAUGCC	0.64
CACGUAGGUGGUUUUCCCCUGACAGUGCUAAGGGGGCCUGGAAGUUUGGACUGGGCAGAGCUCAACACAGCGUGGCAAAGUGGCUGUGGCUAGACUGCCUCUCUGGAUUCCUCGUCACUCAGCAGGGCAUCUCUGAGAUAAAUGCC	0.75
CACGUAGGUGGAUUUCCCCUGAUAGUGCUAAGGGGGCCUGGAAGUUUGGACUGGGCAGAGCUCAACACAGCGUGGCAAAGUGGCUGUGGCUAGACUGCCUCUCUGGAUACCUCGUCACUCGGCAGGGCAUCUCUGAGAGAAAUGCC	0.78
CACGUAGGUGGUUUUCCCCUGACAGUGCUAAGGGGGCCUGGAAGUUUGGACUGGGCAGAGCUCAACACAGCAUGGCAAAGUGGCUGUGGCUAGACUGCCUCUCUGGAUUCCUCGUCACCCAGCAGGGCAUCUCUGAGAGAAAUGCC	1.19
CACGUAGGUGGUUUUCCCCCGAUAGUGCUAAGGGGGCCUGGAAGUUCGAACUGGGCAGAGCUCAACACAGCGUGGCAAAGUGGCUGUGGCUAGACUGCCUCUCUGGAUUCCUCGUCACUCAGCAGGGCACCUCUGAGAGAAAUGCC	1.38
CACGUAGGUGGUUUACCCCUGAUAGUGCUAGGGGGGCCUGGAAGUUUGGACUGGGCAGAGCUCAACACAGCGUGGCAAAGUGGCUGUGGCUAGACUGCCUCUCUGGAUUCCUCGUCACUCAGCAGGGCAUCUCUGAGAGAAAUGCC	1.04
CACGUAGGUGGUUUCCCCCUGGUAGUGCUAAGGGGGCCUGGGAGUUUGGACUGGGCAGAGCUCAACACUGCGUGGCAAAUUGGCUGUGGCUAGACUGCCUAUCUGGAUUCCUCGUCACUCAGCAGGGCUUCUCUGAGAGAAAUGCC	0.51
CACGUAGGUGGCUUUCCCCUGAUAGUGCUAAGGGGGCCUGGAAGUUUGGACUGGGCAGAGCUCAACACGGCGUGGCGAAGUGGCUGUGGCUAGACUGCCUCUCUGGAUUCCUCGUCACUCAGCAGGGCAUCUCUGAGAGGAAUGCC	0
CACGUAGGUGGUUUCCCCCUGAUAGUGCUAAGGGGGCCUGGAAGUUUGGACUGGGCAGAGCUCAACACAGCGUGGCAGAGUGGCUGUGGCUAGACUGCCUCUCUGGAUUCCUCGUCACUCAGCAGGGCAUCUCUGAGAGAAAUGCC	0.65
